Patent US20250000991A1, “NECTIN-4 ANTIBODIES AND ANTIBODY-DRUG CONJUGATES” (Eli Lilly and Company, priority 2023, published 2025)
“And” between values parts separate entries of the source, which are not always exact repeats. Identical values can stand only once.

Experiments:
[1] = target: T1, human Nectin-4 (Homo sapiens, UniProt Q96NY8); test: Surface plasmon resonance (Biacore 8K+) binding of nectin-4 ADCs to human Nectin-4; conditions: human Nectin-4, 37° C., ADC Formula XI DAR 8; n=3 mean ± SD, n=2 replicate values
T1 construct: His tag; purchased Acro Biosystems NE4-H52H3
T1 sequence (Q96NY8 32-510): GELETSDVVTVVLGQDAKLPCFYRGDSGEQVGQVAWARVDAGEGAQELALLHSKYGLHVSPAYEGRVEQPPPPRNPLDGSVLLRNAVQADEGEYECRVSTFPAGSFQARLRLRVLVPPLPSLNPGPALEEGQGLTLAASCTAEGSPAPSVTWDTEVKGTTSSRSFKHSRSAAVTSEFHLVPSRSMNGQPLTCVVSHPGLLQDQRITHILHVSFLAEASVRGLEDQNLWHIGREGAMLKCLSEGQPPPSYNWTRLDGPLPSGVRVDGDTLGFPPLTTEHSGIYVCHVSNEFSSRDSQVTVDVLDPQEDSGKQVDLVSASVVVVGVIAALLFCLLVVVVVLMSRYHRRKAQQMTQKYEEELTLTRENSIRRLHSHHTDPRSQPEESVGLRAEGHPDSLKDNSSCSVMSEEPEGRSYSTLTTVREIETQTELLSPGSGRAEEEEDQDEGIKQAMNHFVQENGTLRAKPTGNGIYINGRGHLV
Procedure: (§1) An anti-human Fc sensor surface was prepared by amine-coupling of goat anti-human IgG Fc (Southern Biotech Cat. No. 2014-01, Birmingham, AL) to a Biacore Series S CM4 (Cytiva Cat. No. BR-100534) sensor surface at 25° C. For immobilization, a running buffer of 10 mM HEPES, 150 mM NaCl, 0.05% Tween-20, pH 7.4 was used. Flow cells 1 & 2 of all 8 channels were activated with a 1:1 (v/v) mixture of 400 mM 1-Ethyl-3-(3-dimethylaminopropyl) carbodiimide hydrochloride (EDC) and […] N-Hydroxysuccinimide (NHS) at a flow rate of 10 uL/min for 7 minutes. Then the anti-human IgG Fc capture reagent was coupled to the sensor surface (diluted to 50 μg/mL in 10 mM Acetate pH 4.5 buffer) by injecting it in all flow cells and channels at a flow rate of 10 uL/min for 7 minutes. Remaining active groups were blocked by injecting 100 mM ethylenediamine (in 200 mM Borate buffer, pH 8.5) in all flow cells and channels at a flow rate of 10 uL/min for 7 minutes. All channels and flow cells were then preconditioned using three consecutive 1-minute injections of 75 mM phosphoric acid at 10 uL/min.
(§2) In each analysis cycle, a different ADC was captured on flow cell 2 of each channel by injecting it at 5 μg/mL and 10 uL/min. After capture, the same analyte was injected on flow cells 1 and 2 in all 8 channels for 2 minutes at 30 uL/n and dissociation was monitored for 10 minutes. After dissociation, all surfaces were regenerated with three 1-minute injections of 5 mM phosphoric acid at 10 uL/min. ADC capture and analyte cycles were repeated to obtain analyte binding of each ADC at concentrations of 0, 2.5, 7.4, 22, 67, 200 and 600 nM nectin-4.
(§3) Sensorgram data were fit globally with the default 1:1 binding model in Biacore Insight Evaluation Software v3.0.12.15655.

[2] = tested on: cyno Nectin-4; test: Surface plasmon resonance (Biacore 8K+) binding of nectin-4 ADCs to cyno Nectin-4; conditions: cyno Nectin-4, 37° C., ADC Formula XI DAR 8, n=1
Procedure: as §1, §2, §3

[3] = tested on: rat Nectin-4; test: Surface plasmon resonance (Biacore 8K+) binding of nectin-4 ADCs to rat Nectin-4; conditions: rat Nectin-4, 37° C., ADC Formula XI DAR 8, n=1
Procedure: as §1, §2, §3

[4] = tested on: T24-hNectin-4 clone 14 cells (MMAE-resistant); test: ADC cytotoxicity in MMAE-resistant cells (CellTiter-Glo); assay type: cell-based, human; conditions: T24-hNectin-4 clone 14, 5 days
Procedure: In T24 nectin-4 cells that are resistant to MMAE, two nectin-4 ADCs described herein and enfortumab vedotin were tested for activity. T24-hNectin-4 clone 14 cells were seeded at 500 per well in 100 ul culture medium, in white clear-bottom 96-well tissue culture plates and incubated at 37° C. with 5% CO2 overnight. The next day each ADC was serially diluted 1:4, with a starting concentration of 400 nM, in culture medium. One-hundred ul of each ADC dilution was added per well and the plates were covered with a Breathe-Easy® sealing membrane and incubated at 37° C. with 5% CO2. After 5 days of treatment, the plates were removed from the incubator, placed at room temperature for 15 minutes, and 100 ul medium per well was removed. One hundred ul of CellTiter-Glo reagent was added per well and the plates were incubated at room temperature for 10 minutes. RLUs (Relative Light Units) were obtained by SpectraMax M5e with SoftMax Pro 5.4. Percentage of cell killing was calculated against DMSO only (for free payloads) or no treatment (for ADCs) as 0%. Data was graphed and analyzed using Graphpad Prism version 9.5.1. IC50s were determined via log(inhibitor) vs. response-variable slope (four parameters) curve fitting.

[5] = tested on: UMUC3-Luc-GFP + UMUC3-hNectin4 clone F7; test: Bystander killing of UMUC3-Luc-GFP cells co-cultured with UMUC3-hNectin4 clone F7 (ONE-Glo); assay type: cell-based, human; conditions: UMUC3-hNectin-4 cloneF7/UMUC3-Luciferase-GFP 4:1, 5 days
Procedure: UMUC3 cell line was engineered to express human Nectin4 and two clonal populations with different levels of expression were selected. In flat white clear-bottom 96-well plates, UMUC3-hNectin4 clone F7/UMUC3-Luc-GFP cells were mixed and seeded at a total of 1500 cells/well/100 ul with a ratio of 4:1 in assay medium (MEM+1× GlutaMax+10% Heat Inactivated Fetal Bovine Serum+1 mM sodium pyruvate). UMUC3-hNectin4 clone E3/UMUC3-Luc-GFP cells were mixed and seeded at a total of 2100 cells/well/100 ul with a ratio of 6:1 in assay medium. UMUC3-Luc-GFP cells were negative for nectin-4 expression. Plates were incubated at 37° C. with 5% CO2 overnight. […] Plates were read after 5-days treatment using ONE-GloTM Luciferase Assay System. […] Luminescence was read in the SpectraMax M5e. […] Percentage of UMUC3-Luc-GFP killing was calculated against no treatment as 0%. Data was graphed and analyzed using Graphpad Prism version 9.5.1. IC50 was determined via log(inhibitor) vs. response (three parameters) curve fitting for bystander activity and log(inhibitor) vs. response (four parameters) for free payload cytotoxicity. […] In experiments run as essentially described herein, the bystander effects of four nectin-4 ADCs described herein and enfortumab vedotin were evaluated using the UMUC3-hNectin-4 cloneF7/UMUC3-Luciferase-GFP cell pair. […]

[6] = tested on: T24 mScarlet clone 5 Nectin-4 negative cells; test: Bystander killing of T24-mScarlet clone 5 cells co-cultured with T24-human nectin4 clone108 (imaging); assay type: cell-based; conditions: T24-mScarlet clone5 : T24-human nectin4 clone108 9:1, 5 days, ADC Formula XI DAR 8; read-out: IC50 of bystander effect
Procedure: T24 cell line was engineered to express mScarlet and clonally selected to test in bystander assay. T24-mScarlet clone5 and T24-human nectin4 clone108 were mixed and seeded at a total of 1000 cells/well/100 ul with a ratio of 9:1 in culture medium (McCoy's 5A+1× GlutaMax+10% Heat Inactivated Fetal Bovine Serum+400 μg/ml G418) in flat clear bottom 96-well plates. T24 mScarlet clone 5 cells were negative for nectin-4 expression. Plates were incubated at 37° C. with 5% CO2 overnight. Next day, ADCs were added at final working concentration from 50 nM, 1:4 serially diluted in culture medium. Plates were covered with Breathe-Easy® sealing membrane, placed in BioSpa and scanned in Cytation5 every day for 5 days.
Images of T24-mScarlet cells were captured and analyzed by Cytation5 with Gen5 Image Prime 3.11. Percentage of T24-mScarlet cell killing was calculated by decreased Integrated Intensity (area×mean intensity), normalized to zero hour and no treatment. Data was graphed and analyzed using GraphPad Prism version 9.5.1. IC50 was determined via log(inhibitor) vs. response-variable slope (four parameters) curve fitting.

B1: Ab2 (conjugate)
heavy: EVQLVESGGGLVQPGGSLRLSCAASGFTFSSYDMHWVRQATGKGLEWVSAIGTVGDTYYPGSVKGRFTISRENAKNSLYLQMNSLRAGDTAVYYCAREWNGMDVWGQGTTVTVSSASTKGPSVFPLAPSSKSTSGGTAALGCLVKDYFPEPVTVSWNSGALTSGVHTFPAVLQSSGLYSLSSVVTVPSSSLGTQTYICNVNHKPSNTKVDKRVEPKSCDKTHTCPPCPAPEAAGGPSVFLFPPKPKDTLMISRTPEVTCVVVSVSHEDPEVKFNWYVDGVEVHNAKTKPREEQYNSTYRVVSVLTVLHQDWLNGKEYKCKVSNKALPAPIEKTISKAKGQPREPQVYTLPPSREEMTKNQVSLTCLVKGFYPSDIAVEWESNGQPENNYKTTPPVLDSDGSFFLYSKLTVDKSRWQQGNVFSCSVMHEALHNHYTQKSLSLSPGK
light: DIVMTQSPDSLAVSLGERATINCKSSQSVLYNSNNKNYLAWYQQKPGQPPKLLIYWASTRESGVPDRFSGSGSGTDFTLTISSLQAEDVAVYYCQQFYTTPYSFGQGTKVEIKRTVAAPSVFIFPPSDEQLKSGTASVVCLLNNFYPREAKVQWKVDNALQSGNSQESVTEQDSKDSTYSLSSTLTLSKADYEKHKVYACEVTHQGLSSPVTKSFNRGEC
ka [1]: (1.02 ± 0.34) × 10^6 1/Ms
kd [1]: (2.14 ± 0.66) × 10^−2 1/s
ka [2]: 1.01e+06 M⁻¹ s⁻¹
kd [2]: 0.02 s⁻¹
ka [3]: 695000 M⁻¹ s⁻¹
kd [3]: 0.0753 s⁻¹
Activity against MMAE-resistant cells [4]: retained activity
Bystander effect (in words) [5]: potent bystander effects
IC50 [6]: 0.0627 nM

B2: Ab7 (conjugate)
heavy: QVQLVQSGAEVKKPGASVKVSCKASGYTFTNYYMHWVRQAPGQGLEWMGIINPSSGSASYAQKFQGRVTMTRDTSTSTVYMELSSLRSEDTAVYYCAREGVGRDILQAFDIWGQGTLVTVSSASTKGPSVFPLAPSSKSTSGGTAALGCLVKDYFPEPVTVSWNSGALTSGVHTFPAVLQSSGLYSLSSVVTVPSSSLGTQTYICNVNHKPSNTKVDKRVEPKSCDKTHTCPPCPAPEAAGGPSVFLFPPKPKDTLMISRTPEVTCVVVSVSHEDPEVKFNWYVDGVEVHNAKTKPREEQYNSTYRVVSVLTVLHQDWLNGKEYKCKVSNKALPAPIEKTISKAKGQPREPQVYTLPPSREEMTKNQVSLTCLVKGFYPSDIAVEWESNGQPENNYKTTPPVLDSDGSFFLYSKLTVDKSRWQQGNVFSCSVMHEALHNHYTQKSLSLSPGK
light: QSVLTQPPSVSEAPRQRVTISCSGSSSNIGNNAVNWYQQLPGKAPKLLIYYDDLLPSGVSDRFSGSKSGTSASLAISGLQSEDEADYYCAAWDDSLNGHVFGGGTKLTVLGQPKAAPSVTLFPPSSEELQANKATLVCLISDFYPGAVTVAWKADSSPVKAGVETTTPSKQSNNKYAASSYLSLTPEQWKSHRSYSCQVTHEGSTVEKTVAPTECS
ka [1]: 5.91 × 10^5, 1/Ms and 5.64 × 10^5 1/Ms
kd [1]: 2.43 × 10^−2, 1/s and 2.12 × 10^−2 1/s
ka [2]: 1.18e+06 M⁻¹ s⁻¹
kd [2]: 0.0464 s⁻¹
ka [3]: 404000 M⁻¹ s⁻¹
kd [3]: 0.0296 s⁻¹
Bystander effect (in words) [5]: potent bystander effects
IC50 [6]: 0.0836 nM
